Values joined by “and” are separate entries in the source; they are usually repeats but may differ in a detail not shown here. Equal entries are not always repeated. Hit rate of the full screen: of about 48,000 compounds, about 1,200 (2.5%) were called active. Not shown: some 2% with an inconclusive outcome.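 Rule for the calls: active = activation of at least 60% and not above a set upper limit (about 1 call in 100 departs from these limits); inconclusive = activation of 40% to 60%, or above that upper limit; inactive = activation under 40%.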 This is one part of the list.

UniProt O75388, sequence (O75388 whole entry, looked up, the tested form may be a part): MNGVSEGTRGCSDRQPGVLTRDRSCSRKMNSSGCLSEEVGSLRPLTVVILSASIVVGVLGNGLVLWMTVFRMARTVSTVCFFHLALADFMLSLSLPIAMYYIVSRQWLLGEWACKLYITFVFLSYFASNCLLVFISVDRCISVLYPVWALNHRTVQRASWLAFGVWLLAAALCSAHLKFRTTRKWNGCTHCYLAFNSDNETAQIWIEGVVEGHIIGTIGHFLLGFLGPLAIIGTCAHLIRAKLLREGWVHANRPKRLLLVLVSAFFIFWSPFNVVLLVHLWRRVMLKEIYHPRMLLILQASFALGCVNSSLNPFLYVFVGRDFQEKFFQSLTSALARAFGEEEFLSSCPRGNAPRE

The experiment has as its target Probable G-protein coupled receptor 32 (Homo sapiens) (UniProt O75388). The experiment can be described thus: qHTS for Agonists of Human Resolvin D1 Receptor DRV1. Note: 0% is about no effect. The note with it: CHO-K1 GPR32 beta-arrestin PathHunter luminescence, 90 min; at 76.9 µM; hits give high values; zero percent set by DMSO-only wells. A digest of the protocol:
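Agonism was scored as beta-arrestin recruitment to ProLink-fused GPR32 in stably transfected CHO-K1 cells, giving a chemiluminescent beta-Gal signal; compounds were incubated 90 min at 37 °C.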
(In general: Quantitative high-throughput screening tests each substance at several concentrations.)
`COc1cccc(CNC(=O)CCn2cnc3ccccc3c2=O)c1`: the activation was inactive: -12%. As for `COc1cccc(-c2cc(C(=O)NCc3ccc(F)cc3)no2)c1`, the figure is inactive: 37.8%; as for `CCOC(=O)c1ccc(NC(=O)c2oc3c(c2C)-c2nn(Cc4ccccc4Cl)cc2CC3)cc1`, inactive: -30.4%; as for `CC(C)CNc1ncnc2onc(-c3ccc(Cl)cc3)c12`, active: 90.1%. The figure for `COc1ccc(-c2nnc(SCC(=O)Nc3c(C)cccc3C)nc2-c2ccc(OC)cc2)cc1` is inactive: -11.4%; for `CCCCOc1ccccc1C1CC(=O)Nc2cc(C)c(C)cc21` (centres undefined) it is inactive: -1.03%; for `NC1(C(=O)O)CC1` it is inactive: -3.84%.

For the compound `CC(CCc1ccccc1)NC(=O)Cn1ncc2c3ccccc3n(Cc3ccccc3)c2c1=O` (centres undefined), the activation was inactive: -9.75%. As for `O=C(CCN1C(=O)c2ccccc2Sc2ncccc21)Nc1ccc(F)cc1`, the figure is inactive: -19.8%; as for `COc1cc2c(cc1OC)n(CC(=O)c1ccc(C)cc1C)c(=O)n1nc(CCn3nc(C)cc3C)nc21`, inactive: -12%; as for `O=S(=O)(c1ccc(-c2cnc(C3CC3)o2)cc1)N1CCN(c2ccccc2F)CC1`, inactive: 8.48%. The figure for `CCN(CC)C(=O)c1ccc(O)c(OC)c1` is inactive: -5.92% and inactive: 7.45%. As for `Cc1nn2c(C)c(C(=O)N3CCN(c4ccc(Cl)cc4)CC3)cnc2c1-c1ccc(F)cc1`, the figure is inactive: -7.43%. For `Cc1cccc(Nc2sc(C(=O)c3ccc(Cl)cc3)c(N)c2C(N)=O)c1`, the activation was inactive: -8.68%. As for `COc1ccc(NC(=O)c2cc(-c3ccccc3F)no2)cc1`, the figure is inactive: 2.53%; as for `COc1cccc(CNC(=O)Cn2nc(C)c3sc4ccccc4c3c2=O)c1OC`, inactive: -0.55%.

With `O=C(NCCCN1CCN(c2cccc(Cl)c2)CC1)c1ccc2nc(Cc3ccccc3)oc2c1`, the activation was inactive: 8.91%. The figure for `Cc1ccc2c(=O)cc(CSc3ncn[nH]3)[nH]c2c1C` is inactive: 22.1%; for `CCOC(=O)c1c(C)[nH]c(C)c1S(=O)(=O)N1CCC(C(=O)N2CCN(c3ccc(F)cc3)CC2)CC1` it is inactive: 13.9%. As for `CCn1cc(C(=O)N2CCN(c3cccc(Cl)c3)CC2)c(=O)c2cc(S(=O)(=O)N3CCC(C)CC3)ccc21`, the figure is inactive: -21.4%; as for `C=Cc1ccc(Cn2c(C)c(CNCCc3ccc(OCC)cc3)c(C(=O)O)c2C)cc1`, active: 67.5%. With `Cc1ccnc(NS(=O)(=O)c2ccc(NC(=O)c3ccc(C)c(C)c3)cc2)n1`, the activation was inactive: -10.1%.

With `Cc1cccc(C)c1OCC(=O)N(Cc1ccco1)Cc1ccco1`, the activation was inactive: -14.7%. On to `Cc1ccccc1CN1C(=O)c2ccccc2Sc2ccc(C(=O)NCCc3ccccc3)cc21`, for which the activation is inactive: -20.7%.
